{
  "source": "PubChem BioAssay AID1159614",
  "about": "(National Center for Advancing Translational Sciences (NCATS), 2016)",
  "note": "Hit rate of the full screen: of about 45,000 compounds, about 65 (0.1%) were called active. Calls come from the whole dose curve; as a rule, active = well fitted activation curve with a large enough effect; inconclusive = small, poorly fitted or top-dose-only effect; inactive = no such curve, though single readings can be large or run the other way. This is one part of the list.",
  "data": [
    {"molecular_target": "Galactocerebrosidase (Homo sapiens) (UniProt P54803)", "sequence (P54803 whole entry, looked up)": "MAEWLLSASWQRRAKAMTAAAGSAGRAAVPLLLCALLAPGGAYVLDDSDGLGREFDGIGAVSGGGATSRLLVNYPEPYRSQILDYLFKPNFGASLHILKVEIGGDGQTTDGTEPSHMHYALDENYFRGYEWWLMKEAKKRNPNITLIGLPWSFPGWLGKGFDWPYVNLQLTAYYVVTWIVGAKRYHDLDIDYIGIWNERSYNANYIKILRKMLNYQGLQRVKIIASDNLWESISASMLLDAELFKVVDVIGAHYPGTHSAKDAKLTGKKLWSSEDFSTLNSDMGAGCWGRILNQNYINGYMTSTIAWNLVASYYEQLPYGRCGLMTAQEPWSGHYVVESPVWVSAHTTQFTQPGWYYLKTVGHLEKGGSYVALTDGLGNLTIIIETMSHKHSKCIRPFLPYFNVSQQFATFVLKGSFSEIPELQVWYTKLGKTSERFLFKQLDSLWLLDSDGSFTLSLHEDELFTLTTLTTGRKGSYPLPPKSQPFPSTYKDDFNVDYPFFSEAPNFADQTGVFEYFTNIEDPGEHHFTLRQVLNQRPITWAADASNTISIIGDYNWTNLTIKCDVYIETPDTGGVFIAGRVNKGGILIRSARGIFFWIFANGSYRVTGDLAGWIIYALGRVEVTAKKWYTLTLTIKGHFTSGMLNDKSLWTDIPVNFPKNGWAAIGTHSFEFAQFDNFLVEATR", "assay": "A Novel Cell-Based Assay to Identify Small Molecules for B -Galactocerebrosidase; note: 0% is about no effect; nearly all actives have a fitted effect of over 65% in size", "conditions": "145M-Twi-hGALC-G270D cells (Twitcher mouse brain line with human GALC G270D), HMU-beta-Gal fluorescence, 48 h; series mostly up to 57.5 µM; activation: at the top concentration", "procedure,_shortened": "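Mutant human GALC (G270D), stably expressed in a Twitcher mouse brain cell line lacking endogenous GALC, is measured in live-treated cells via 6-hexadecanoylamino-4-methylumbelliferyl-β-galactoside hydrolysis (0.1 mM final, pH 5.2) with fluorescent detection.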", "values": [
      {"smiles": "CCc1ccc(CNC(=O)c2ccc3c(c2)nc2n3CCC(C)C2)cc1", "note": "(configuration not stated)", "activation": "inactive: 6.06%"},
      {"smiles": "COc1ccc(-c2onc(C)c2C)cc1S(=O)(=O)NCc1ccco1", "activation": "inactive: -10.4%"},
      {"smiles": "O=C(Nc1ccc(F)cc1Cl)n1ncc2cc(Cl)ccc21", "activation": "inactive: -19.7%"},
      {"smiles": "CCC(=O)N1CCc2cc(S(=O)(=O)NC(CC(C)C)C(=O)Nc3cc(C)ccc3OC)ccc21", "note": "(configuration not stated)", "activation": "inactive: -11.2%"},
      {"smiles": "CCC12CN3CC(C)(CN(C1)C3c1c[nH]c3ccccc13)C2=O", "note": "(configuration not stated)", "activation": "inactive: -9.47%"},
      {"smiles": "CCc1ccc(NC(=O)CSC2=Nc3ccccc3C3=NC(CCC(=O)NCCc4ccccc4)C(=O)N23)cc1", "note": "(configuration not stated)", "activation": "inactive: -16.1%"},
      {"smiles": "COc1ccc(/C=C\\c2onc(C)c2S(=O)(=O)N2CCC(C(=O)Nc3ccc(C)cc3C)CC2)cc1", "activation": "inactive: -13.3%"},
      {"smiles": "CC1=C(C(=O)Nc2ccc(C)cc2C)C(c2ccc(O)cc2)n2nnnc2N1", "note": "(configuration not stated)", "activation": "inactive: 13.1%"},
      {"smiles": "CCS(=O)(=O)c1ncc(N(Cc2ccco2)Cc2sccc2C)c(C(=O)Nc2ccc(C)cc2C)n1", "activation": "inactive: -5.91%"},
      {"smiles": "CCCOc1ccc(C(=O)Nc2cccc(NC(=O)c3cccc(Cl)c3)c2)cc1", "activation": "inactive: -16%"},
      {"smiles": "CC(C)c1ccc(-c2nnc3n(CCc4ccccc4)c(=O)c4ccccc4n23)cc1", "activation": "inactive: -16.9%"},
      {"smiles": "Cc1ccc(CNC(=O)CCc2c(C)nc3nc(CNC(=O)OC(C)(C)C)nn3c2C)cc1", "activation": "inactive: -12.8%"},
      {"smiles": "O=C(COc1ccccc1-c1nnc(-c2ccccc2)o1)Nc1ccc(Br)cc1F", "activation": "inactive: 16.8%"},
      {"smiles": "CC(=O)c1cccc(Nc2ccc3cc(S(=O)(=O)N4CCC(C)CC4)ccc3n2)c1", "activation": "inactive: 0.92%"},
      {"smiles": "CCC(=O)N1CCc2cc(S(=O)(=O)NCCC(=O)Nc3ccc(C)cc3)ccc21", "activation": "inactive: -22.1%"},
      {"smiles": "CC(=O)c1ccc(NS(=O)(=O)c2cc(-c3cc(C)no3)ccc2C)cc1", "activation": "inactive: -13.3%"},
      {"smiles": "CCCNC(=O)CCNS(=O)(=O)c1ccc2c(c1)c(=O)n(C)c(=O)n2C", "activation": "inactive: -13.1%"},
      {"smiles": "COc1cc(C(=O)n2nc(-c3ccco3)nc2NCc2ccc(Cl)cc2)cc(OC)c1OC", "activation": "inactive: -9.73%"},
      {"smiles": "Cc1cccc(NCc2nc3ccccc3n2CCOc2ccccc2C)c1", "activation": "inactive: -11.2%"},
      {"smiles": "COc1ccccc1OCC(=O)Nc1nc2c(s1)CC(C)CC2", "note": "(configuration not stated)", "activation": "inactive: -1.02%"},
      {"smiles": "Cc1ccc2nc(-c3ccc(Cl)cc3)cc(C(=O)OCC(=O)c3ccccc3)c2c1", "activation": "inactive: -13%"},
      {"smiles": "CCSc1ncc(Cl)c(C(=O)Nc2c(C(=O)Nc3cccc(C)c3)oc3ccccc23)n1", "activation": "inactive: -2.3%"},
      {"smiles": "Cc1cccc(-c2nc(CSc3nncn4c3cc3oc(C)cc34)c(C)o2)c1", "activation": "inactive: -10.6%"},
      {"smiles": "COc1ccc(C(=O)NCC(c2ccc(N(C)C)cc2)N2CCCC2)c(OC)c1", "note": "(configuration not stated)", "activation": "inactive: -15.4%"},
      {"smiles": "CCC(Cn1nnc2ccccc2c1=O)NC(=O)Nc1ccc(C)cc1C", "note": "(configuration not stated)", "activation": "inactive: 8.77%"},
      {"smiles": "COc1ccc(C(=O)NCCc2sc(-c3ccc(F)cc3)nc2C)cc1OC", "activation": "inactive: -5.31%"},
      {"smiles": "CC1CCC(NC(=O)C2(C)Cc3ccccc3C(=O)N2Cc2ccc(F)cc2)CC1", "note": "(configuration not stated)", "activation": "inactive: -8.68%"}
    ]}
  ]
}
